ChEMBL document CHEMBL4888484, “Replenishing the malaria drug discovery pipeline: Screening and hit evaluation of the MMV Hit Generation Library 1 (HGL1) against asexual blood stage Plasmodium falciparum ,using a nano luciferase reporter read-out” (2022)
Hit rate of the full screen: of about 150,000 compounds, about 540 (0.36%) showed an effect of 50% or more. Some of the results follow.

Each compound was assayed on Plasmodium falciparum (assay: Primary screen in NF54 nanoGlo assay, in single point, at 2uM, 72h; a lower Z score goes with more inhibition). Settings: timepoint 72 hour.
Type: functional, Erythrocyte

Row | SMILES | % Inhibition [%] | Z score
1 | Cc1ccccc1N1C[C@H](Cc2ccccc2)N(C(=O)CO)CC1=O | -6 | 0.85
2 | O=S1(=O)CC(O)C(N(Cc2ccccn2)Cc2ccco2)C1 (stereo not drawn) | 1 | -0.12
3 | O=c1c(C(F)(F)F)cccn1Cc1nccs1 | -14 | 3.03
4 | Cc1cccn2c(=O)cc(CN3CC(=O)N(CC4CC4)C3)nc12 | -18 | 2.3
5 | O=C1NC(=O)C2(CCN(C(=O)c3ccc4c(c3)CCC4)CC2)N1 | 11 | -1.35
6 | O=C(c1cn(C2CCCCC2)nn1)N1CCC[C@H](CN2CCCCC2)C1 | 6 | -0.86
7 | O=C(C1CCC(F)(F)CC1)N(CC(F)F)c1cccc(Cl)c1 | -6 | 0.63
8 | O=C(c1ccccc1-c1ccccc1F)N1C[C@H](O)[C@@H](F)C1 | -15 | 2.06
9 | O=C(Nc1nc(CC(=O)N2C[C@@H](O)C[C@H]2CO)cs1)c1ccco1 | -1 | 0.13
10 | O=C1CCC(=O)N1c1ncn(Cc2ccc(F)cc2Cl)n1 | 5 | -0.58
11 | C[C@H]1CN(CCCNC(=O)c2cc3[nH]cnc3cc2F)CCCO1 | -3 | 0.29
12 | O=C(Nc1nc2c(s1)CCCC2)c1ccc(-c2ccccc2)cc1 | -5 | 0.6
13 | Cc1cscc1NC(=O)N1CCO[C@@H](CS(C)(=O)=O)C1 | -1 | 0.07
14 | Cc1cc(C(=O)Nc2ccc(N(C)C(C)C)c(F)c2)c(C)n1-c1nccs1 | -15 | 1.87
15 | O=C(c1ccc(F)c2occc12)N1CCC[C@H]1c1ncc[nH]1 | -7 | 0.91
16 | O=S(=O)(Nc1ccccc1)[C@H]1CCCN(c2ccc3nccnc3n2)C1 | -18 | 1.8
17 | FC(F)(F)c1ccc(CN2CC[C@H](c3nc4ncccc4[nH]3)C2)cc1 | 25 | -2.8
18 | CN(CC1COc2ccccc2O1)C(=O)C1COCCN1CC(F)(F)F (stereo not drawn) | -5 | 0.63
19 | CCc1nnc(CNC(=O)Nc2nc3c(s2)CCCC3)o1 | -11 | 1.92
20 | c1ccc2c(NC3CCCCCC3)ncnc2c1 | -7 | 0.76
21 | Cc1nccn1CC(=O)Nc1ccc(N2CCCCC2)cn1 | 0 | -0.05
22 | CN1C(=O)COC12CCN(C(=O)[C@H]1C[C@@H]1c1cccc(Br)c1)CC2 | -4 | 0.73
23 | Cc1ccc2ncccc2c1CN1CCN(CCO)[C@@H]2CS(=O)(=O)C[C@@H]21 | 6 | -1.01
24 | S=c1cc(-c2ccccc2)n(Cc2ccco2)c2c1CCCC2 | 54 | -6.88
